In the supplement of paper PMC8728848:
This is one part of the list.

Tests used:
Assay in all cases: glycan array binding signal (z-score within array); higher = stronger binding
Conditions in all cases: glycan notation: IUPAC condensed, linker removed
[1] = target: Neu5Ac(a2-3)GalNAc
Method in brief: (§1)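 Negative Z-scores can be read as non-binding. The Z-score is calculated within each array and then averaged across arrays of one protein sequence at different concentrations or buffers and across linkers. Arrays, 3228 in all, were curated from the Consortium for Functional Glycomics database and kept only where the protein sequence was available.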

[2] = target: Neu5Ac(a2-3)GalNAc(b1-4)GlcNAc
Method in brief: as §1

[3] = target: Neu5Ac(a2-3)[GalNAc(b1-4)]Gal(b1-4)Glc
Method in brief: as §1

[4] = target: Neu5Ac(a2-3)[GalNAc(b1-4)]Gal(b1-4)GlcNAc
Method in brief: as §1

[5] = target: Neu5Ac(a2-3)[GalNAc(b1-4)]Gal(b1-4)GlcNAc(b1-3)GalNAc
Method in brief: as §1

[6] = target: Neu5Ac(a2-3)[Neu5Ac(a2-6)]GalNAc
Method in brief: as §1

[7] = target: Neu5Ac(a2-6)Gal
Method in brief: as §1

[8] = target: Neu5Ac(a2-6)Gal(b1-3)GlcNAc(b1-3)[Gal(b1-4)GlcNAc(b1-6)]Gal(b1-4)Glc
Method in brief: as §1

[9] = target: Neu5Ac(a2-6)Gal(b1-4)Glc
Method in brief: as §1

[10] = target: Neu5Ac(a2-6)Gal(b1-4)GlcNAc
Method in brief: as §1

[11] = target: Neu5Ac(a2-6)Gal(b1-4)GlcNAc(b1-2)Man
Method in brief: as §1

[12] = target: Neu5Ac(a2-6)Gal(b1-4)GlcNAc(b1-2)Man(a1-3)Man(b1-4)GlcNAc(b1-4)GlcNAc
Method in brief: as §1

[13] = target: Neu5Ac(a2-6)Gal(b1-4)GlcNAc(b1-2)Man(a1-3)[Gal(b1-4)GlcNAc(b1-2)Man(a1-6)]Man(b1-4)GlcNAc(b1-4)GlcNAc
Method in brief: as §1

[14] = target: Neu5Ac(a2-6)Gal(b1-4)GlcNAc(b1-2)Man(a1-3)[GlcNAc(b1-2)Man(a1-6)]Man(b1-4)GlcNAc(b1-4)GlcNAc
Method in brief: as §1

[15] = target: Neu5Ac(a2-6)Gal(b1-4)GlcNAc(b1-2)Man(a1-3)[GlcNAc(b1-4)][Neu5Ac(a2-6)Gal(b1-4)GlcNAc(b1-2)Man(a1-6)]Man(b1-4)GlcNAc(b1-4)GlcNAc
Method in brief: as §1

[16] = target: Neu5Ac(a2-6)Gal(b1-4)GlcNAc(b1-2)Man(a1-3)[Man(a1-6)]Man(b1-4)GlcNAc(b1-4)GlcNAc
Method in brief: as §1

[17] = target: Neu5Ac(a2-6)Gal(b1-4)GlcNAc(b1-2)Man(a1-3)[Neu5Ac(a2-3)Gal(b1-4)GlcNAc(b1-2)Man(a1-6)]Man(b1-4)GlcNAc(b1-4)GlcNAc
Method in brief: as §1

[18] = target: Neu5Ac(a2-6)Gal(b1-4)GlcNAc(b1-2)Man(a1-3)[Neu5Ac(a2-6)Gal(b1-4)GlcNAc(b1-2)Man(a1-6)]Man(b1-4)GlcNAc(b1-4)GlcNAc
Method in brief: as §1

[19] = target: Neu5Ac(a2-6)Gal(b1-4)GlcNAc(b1-2)Man(a1-3)[Neu5Ac(a2-6)Gal(b1-4)GlcNAc(b1-2)Man(a1-6)]Man(b1-4)GlcNAc(b1-4)[Fuc(a1-6)]GlcNAc
Method in brief: as §1

[20] = target: Neu5Ac(a2-6)Gal(b1-4)GlcNAc(b1-2)Man(a1-6)Man(b1-4)GlcNAc(b1-4)GlcNAc
Method in brief: as §1

[21] = target: Neu5Ac(a2-6)Gal(b1-4)GlcNAc(b1-2)Man(a1-6)[Gal(b1-4)GlcNAc(b1-2)Man(a1-3)]Man(b1-4)GlcNAc(b1-4)GlcNAc
Method in brief: as §1

[22] = target: Neu5Ac(a2-6)Gal(b1-4)GlcNAc(b1-2)Man(a1-6)[GlcNAc(b1-2)Man(a1-3)]Man(b1-4)GlcNAc(b1-4)GlcNAc
Method in brief: as §1

[23] = target: Neu5Ac(a2-6)Gal(b1-4)GlcNAc(b1-2)Man(a1-6)[Man(a1-3)]Man(b1-4)GlcNAc(b1-4)GlcNAc
Method in brief: as §1

[24] = target: Neu5Ac(a2-6)Gal(b1-4)GlcNAc(b1-2)[Neu5Ac(a2-6)Gal(b1-4)GlcNAc(b1-4)]Man(a1-3)[GlcNAc(b1-4)][Neu5Ac(a2-6)Gal(b1-4)GlcNAc(b1-2)[Neu5Ac(a2-6)Gal(b1-4)GlcNAc(b1-6)]Man(a1-6)]Man(b1-4)GlcNAc(b1-4)GlcNAc
Method in brief: as §1

[25] = target: Neu5Ac(a2-6)Gal(b1-4)GlcNAc(b1-2)[Neu5Ac(a2-6)Gal(b1-4)GlcNAc(b1-4)]Man(a1-3)[GlcNAc(b1-4)][Neu5Ac(a2-6)Gal(b1-4)GlcNAc(b1-4)Man(a1-6)]Man(b1-4)GlcNAc(b1-4)GlcNAc
Method in brief: as §1

[26] = target: Neu5Ac(a2-6)Gal(b1-4)GlcNAc(b1-2)[Neu5Ac(a2-6)Gal(b1-4)GlcNAc(b1-6)]Man(a1-6)[Neu5Ac(a2-6)Gal(b1-4)GlcNAc(b1-2)Man(a1-3)][GlcNAc(b1-4)]Man(b1-4)GlcNAc(b1-4)GlcNAc
Method in brief: as §1

[27] = target: Neu5Ac(a2-6)Gal(b1-4)GlcNAc(b1-3)Gal(b1-3)GlcNAc
Method in brief: as §1

[28] = target: Neu5Ac(a2-6)Gal(b1-4)GlcNAc(b1-3)Gal(b1-4)GlcNAc
Method in brief: as §1

[29] = target: Neu5Ac(a2-6)Gal(b1-4)GlcNAc(b1-3)Gal(b1-4)GlcNAc(b1-2)Man(a1-3)[Neu5Ac(a2-6)Gal(b1-4)GlcNAc(b1-3)Gal(b1-4)GlcNAc(b1-2)Man(a1-6)]GalNAc
Method in brief: as §1

[30] = target: Neu5Ac(a2-6)Gal(b1-4)GlcNAc(b1-3)Gal(b1-4)GlcNAc(b1-3)Gal(b1-4)GlcNAc
Method in brief: as §1

[31] = target: Neu5Ac(a2-6)Gal(b1-4)GlcNAc(b1-3)Gal(b1-4)GlcNAc(b1-3)Gal(b1-4)GlcNAc(b1-2)Man(a1-3)[Neu5Ac(a2-6)Gal(b1-4)GlcNAc(b1-3)Gal(b1-4)GlcNAc(b1-3)Gal(b1-4)GlcNAc(b1-2)Man(a1-6)]GalNAc
Method in brief: as §1

[32] = target: Neu5Ac(a2-6)Gal(b1-4)GlcNAc(b1-3)Gal(b1-4)GlcNAc(b1-3)GalNAc
Method in brief: as §1

[33] = target: Neu5Ac(a2-6)Gal(b1-4)GlcNAc(b1-3)Gal(b1-4)GlcNAc(b1-3)[Neu5Ac(a2-6)Gal(b1-4)GlcNAc(b1-3)Gal(b1-4)GlcNAc(b1-6)]GalNAc
Method in brief: as §1

[34] = target: Neu5Ac(a2-6)Gal(b1-4)GlcNAc(b1-3)Gal(b1-4)GlcNAc(b1-6)[Gal(b1-3)]GalNAc
Method in brief: as §1

[35] = target: Neu5Ac(a2-6)Gal(b1-4)GlcNAc(b1-3)Gal(b1-4)[Fuc(a1-3)]GlcNAc(b1-3)Gal(b1-4)[Fuc(a1-3)]GlcNAc
Method in brief: as §1

[36] = target: Neu5Ac(a2-6)Gal(b1-4)GlcNAc(b1-3)GalNAc
Method in brief: as §1

[37] = target: Neu5Ac(a2-6)Gal(b1-4)GlcNAc(b1-3)[Neu5Ac(a2-6)Gal(b1-4)GlcNAc(b1-6)]GalNAc
Method in brief: as §1

[38] = target: Neu5Ac(a2-6)Gal(b1-4)GlcNAc(b1-6)GalNAc
Method in brief: as §1

B1: CML1 (Coprinopsis cinerea) (protein)
chain: MAIFHTGSELFIITRGPGKLTLLTWGGLNNLRSVIGAIPTENTGVTKWAVSFSHNYTRFSFIWEGQGEACYQIGNGLTRSPVGRSWSSSSTIHWGSSTVITEDVTSVVPGAVNRDKVTTAYALPDNL
glycan array binding signal (z-score) [1]: -0.344 | glycan array binding signal (z-score) [2]: -0.345 | glycan array binding signal (z-score) [3]: -0.339 | glycan array binding signal (z-score) [4]: -0.353 | glycan array binding signal (z-score) [5]: -0.315 | glycan array binding signal (z-score) [6]: -0.338 | glycan array binding signal (z-score) [7]: -0.348 | glycan array binding signal (z-score) [8]: -0.348 | glycan array binding signal (z-score) [9]: -0.343 | glycan array binding signal (z-score) [10]: -0.352 | glycan array binding signal (z-score) [11]: -0.315 | glycan array binding signal (z-score) [12]: -0.332 | glycan array binding signal (z-score) [13]: -0.336 | glycan array binding signal (z-score) [14]: -0.337 | glycan array binding signal (z-score) [15]: -0.351 | glycan array binding signal (z-score) [16]: -0.308 | glycan array binding signal (z-score) [17]: -0.324 | glycan array binding signal (z-score) [18]: -0.336 | glycan array binding signal (z-score) [19]: -0.296 | glycan array binding signal (z-score) [20]: -0.324 | glycan array binding signal (z-score) [21]: -0.337 | glycan array binding signal (z-score) [22]: -0.359 | glycan array binding signal (z-score) [23]: -0.319 | glycan array binding signal (z-score) [24]: -0.321 | glycan array binding signal (z-score) [25]: -0.331 | glycan array binding signal (z-score) [26]: -0.334 | glycan array binding signal (z-score) [27]: -0.35 | glycan array binding signal (z-score) [28]: -0.361 | glycan array binding signal (z-score) [29]: -0.308 | glycan array binding signal (z-score) [30]: -0.315 | glycan array binding signal (z-score) [31]: -0.299 | glycan array binding signal (z-score) [32]: -0.347 | glycan array binding signal (z-score) [33]: -0.324 | glycan array binding signal (z-score) [34]: -0.314 | glycan array binding signal (z-score) [35]: -0.159 | glycan array binding signal (z-score) [36]: -0.347 | glycan array binding signal (z-score) [37]: -0.323 | glycan array binding signal (z-score) [38]: -0.317
